In all, about 4,500 sequences were measured (“median log2 fold change of GCK-ALFA target abundance (FLAG IP / Myc IP barcode read proportion)”: median about 0.078, lowest 2% from about -0.6 on). This is one part of the list.
B1: GBRAP_9_7123 (protein)
chain: MEEMIKKMAEVVKEMIEDISLAVPSVTEELKEKWLKKVEELEKEALKDKSLTPEEIKKKFKELVKEIKEEVKKIVNPEDAKIVDAIALTAEEEIDEIVEE
B2: GBRAP_52_6017 (protein)
chain: MRERLRAFVDEALELVKAGKLEEAQKLVDELVASLNEEEIKVLIDVVAERAAAAAPEDHDAVWRLAEMIAEAMEKAGYDEALADDLLARVAAALYEAEQR
B3: GBRAP_128_3330 (protein)
chain: MDEEALEKAKELAKELEKADEEEAAKLTREIVALLGKASPEEREKIAEIFEKALEKLTAEKLDVVADTLREERPKLSPEAQLVVAGLEVEALNLAEEKEE
B4: GBRAP_166_4973 (protein)
chain: SQKELVEELKKELDRLAEKMKTADYEEKLELLAEAAELLREAKEKGLSKEDLRELIRYLIEKAKEVGIPLSAVEGALTILAELDEEEVDILLEAIEEVEA
B5: GBRAP_11_2757 (protein)
chain: KKEKLKEIAEKAKKLAELLEKLLKEGVDNEELLKKAKELLEELKKLVEKYGDESLKKLVEILEEEFEKALKDKENKEKYVQNALATAAVIAGQALLEYEE
B6: GBRAP_160_4840 (protein)
chain: SEKLEKVKKELEETLKFVLSLVDEVSVEDLAKFFDAEIGTTLLYLYEEGYINEEAFDAGIELADEAREALLAAADASPEELKALIKEKVEEMIKKIEKLL
B7: GBRAP_160_4365 (protein)
chain: SEALKELAEEIEELREEFREEAKDLSPEEVRTLGLGVLAEVAALVWDNEAVSDEVEDEIMEIIDEAEEELRESKDASPEELVEIVEEAIEEIIELIKKEA
B8: GBRAP_166_4948 (protein)
chain: SLEEVIEETREFIRELAERMKTLNDEERLDALIEIAERLEEARKAGVSEEDLLELVREALELVKEAGGSVEQFVGALDMFVDLDEEELDKVAEIAEEVKA
B9: GBRAP_78_6586 (protein)
chain: AIEAAIDALLAAAGAAMRLLSRDPRELAQDLLGELIDEVSEIYEAAEEENDKEEILAEAEELAAALQAALAQAEQFSPETVAAIQAALAAAQALIALLKK
B10: GBRAP_43_5764 (protein)
chain: SKELVDGAFDFALLALEEPSIPEETKVKAIKAAFGLAADEGYLNPEKVKEVVEKAAETLSAESLKEILKHLKELAKKYPELKETLEEAIEKLEKAIKEKE
B11: GBRAP_160_4302 (protein)
chain: MEELEKLKKEIDEIFDEAIELIEGESPEQRLAIVRVAMGEVILEAMENPKVSDEAEEKIAEIADKTEAEIRANPDLSEEEVKELIEKARDEVIEIIDELE
B12: GBRAP_184_5277 (protein)
chain: KVKLVEIEAETAEEAIKQVKKAAEEAKKEGVKLKLNILLKDADVEGIIELFELLKKLKEEGIIEEAVVGIEREFTEEEIDILVKAADEAGVKLVVAIKDE
B13: GBRAP_117_2595 (protein)
chain: SATDAEVAALVKRLVERIREALEKEKTLSEEERKKLREELLKEATEEVEKMLKLTDSDTVEEFFADALADLSPEERVEAYIIFEEALADAEERLKKEKAA
B14: GBRAP_52_6174 (protein)
chain: RRARAEAAAAALLEAIRAGRWEEVDALLRRAAAEFDDEEIRLMFEIVAERVPELTPEQQERVVEAALRAEDILEAAGHDPELASYLAARVAGAAHAALQA
B15: GBRAP_160_4849 (protein)
chain: SEKKEKVRKELLEAREFVLSLIPEVTVEQLAAFYDAEISSTLLELYEKGYINEEAEDAGLELADEMREELLAAADATPEELRRLVEEGVERMIKEIEKLM
B16: GBRAP_160_4609 (protein)
chain: KEKQKKFKEEIKKEFEEAIKMIEGETIEERANIIDVTIGQIIIEADELEVVSDESLDKIDEIRDEVVNYILENPDLTDEEIKKLIKEAEEKILAIVEADE
B17: GBRAP_80_6836 (protein)
chain: MEEKLEEAVKEIEEVDPEIAEKVKRIIEIAKELGVPLEDLLRLTEAILELAKVDKEKALELVERLLEEMEEALKRGDRDEALADIVDAESDALLHVEELE
B18: GBRAP_83_6884 (protein)
chain: KEEITVAGPGDRIEELAEIAIDLSKNEGYEVTIEIIAKPEELEKVLEGVERLAKEGLNVEVRIYAEGVTEEEAEELKKKIEEIAKKHGVKINVEITLEEP
B19: GBRAP_128_3523 (protein)
chain: SVAAARAAARATVDAIAAASVEEARAIARAFLAQLRGWSLEEVAAAVDVMRELLPRLSAEKLEAVADAIEEQRGAFSPEVARLLADLQVEALNLAEELEE
B20: GBRAP_52_6269 (protein)
chain: MKELAEKLAKEFIETSLNGTEEEVKEFAKKLVETESQELIELMLEIVVEMAKSLNAEELEKLLDAFLILEDELEEAGKDTLPAEDAAAELAKLYMEKLKE
B21: GBRAP_18_5402 (protein)
chain: APSPFEQDWASLSEEAQDFVAKAIGDALSEEDTERRIEILVDALVELSERLSPEEVYAAMRLLLRSVVSRMEEAEEVARRFIERVPERRPEAERVLEDLK
B22: GBRAP_52_5854 (protein)
chain: SSERARELARELVELALAGDEEGLEKRIKEIVETLSEEEILEILDELARLAKTATPEEVDAIVEVAIKLAEIAEEAGFDEWELSAAEARVGQAAYKNLQA
B23: GBRAP_186_5372 (protein)
chain: EEEAEKEIEEFIDKAAKEGYVISGVLEVKEFTEEAKERIIRELEALAEFSAEFGYKGALIIKTYLSEEEFEKLKEFVEEKREELSKETGAEVEVKIVHVK
B24: GBRAP_74_6568 (protein)
chain: SEELIKEIKEIAENKSLKEFSEFILKNIEKLDEESLLVAAKEFAKKVKEEKETITEEELEIAEEAAAALAEKAFQEDSSRETLKAVNELIKEVVEAEKSL
B25: GBRAP_78_6731 (protein)
chain: ELEKLLEEAIKVASEAAKLAVKQASNEVIAEIVEALSHLEEALELVEEGGEKEEILEELEKALEHLKEALKLLPESLTEIKKLLEEAIKLVEEAIKEVKK
B26: GBRAP_160_4843 (protein)
chain: SEKLEKVKKELEEARDFILSLVDEVSVEQVAKFADAELGSTALYLYEEGYINEEALDAILEEADKLVAELLANKNASVEEIKAIIDEHVKRAIEKVEKLL
B27: GBRAP_26_5491 (protein)
chain: KVEEILKEAAKKVREILKDESETKRAAIVAYVEDELLEAEEIFEENANNEEKIEEAKEEALKRVEEGLKDFGISEEKREKIVEVVKEALEKIEKAIKEEA
B28: GBRAP_52_5998 (protein)
chain: REARIRAVAEELVAAVLAGDEAGLRALLRELAATFTPEEIVATVALATELLMRDPRATDEDVRRFIDLVEEVLEEEGQDERTIADVTGAIARAIARAEAE
B29: GBRAP_11_2927 (protein)
chain: KKEKIKEIAELAEELAEAADRLIAEGTDNEELRKKLEELLEKLVELVKEYGDEADKKDAEHMRELWEKAKADPANAVQYLTELRNEARVLSGIYLLEYDE

biological target: GABARAP, O95166; assay: median log2 fold change of GCK-ALFA target abundance (FLAG IP / Myc IP barcode read proportion) (log2 ratio); each designed protein is fused to an ALFA-tag nanobody in HEK293 cells to bring the named protein to FLAG-tagged glucokinase (GCK); Myc marks an untargeted standard; higher = target protein stabilised (more abundant); conditions: target protein: 3xFLAG-MCP-GCK-ALFA reporter; HEK293 landing pad (RPLP)
Sequence (O95166 whole entry, the tested form may be a part): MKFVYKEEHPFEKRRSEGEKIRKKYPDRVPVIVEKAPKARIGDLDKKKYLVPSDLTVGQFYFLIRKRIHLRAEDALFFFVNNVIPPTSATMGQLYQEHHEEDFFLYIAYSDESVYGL
In short: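 The readout is target abundance, the per-binder median log2 ratio of FLAG to Myc barcode read proportions. It came from HEK293 landing-pad cells carrying a recombined ALFA-nanobody-fused binder library, induced with 2 μg mL^−1 doxycycline and transfected with a plasmid for a FLAG-tagged target and a Myc-tagged standard. After 48 h, lysates were immunoprecipitated with anti-FLAG and anti-Myc, and circular RNA barcodes were reverse transcribed, amplified and sequenced. Each barcode needed a proportion of at least 10^−7 in both replicates and each binder at least 3 barcodes per replicate, a pseudocount of 10^−6 was added, and the replicates were pooled.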

Row | Binder | median log2 fold change
1 | B1 | 0.342
2 | B2 | 0.189
3 | B3 | -0.0974
4 | B4 | 0.161
5 | B5 | 0.312
6 | B6 | -0.432
7 | B7 | -0.415
8 | B8 | 0.0139
9 | B9 | -0.336
10 | B10 | -0.000635
11 | B11 | -0.204
12 | B12 | -0.264
13 | B13 | 0.173
14 | B14 | 0.22
15 | B15 | -0.327
16 | B16 | -0.0815
17 | B17 | -0.0402
18 | B18 | 0.189
19 | B19 | 0.214
20 | B20 | 0.267
21 | B21 | 0.25
22 | B22 | -0.122
23 | B23 | 0.0239
24 | B24 | 0.053
25 | B25 | 0.0787
26 | B26 | -0.0079
27 | B27 | 0.261
28 | B28 | 0.0658
29 | B29 | 0.134
